# Experimental data from ChEMBL document CHEMBL1201862, “PubChem BioAssay data set” (2004).
#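 96-well plates; 48 h exposure; 5 concentrations. Endpoints by linear interpolation between flanking doses. Not reached: highest tested concentration assigned. Here, GI50 denotes the concentration required for 50% inhibition of growth.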 Activity calls are given as the source filed them. Rule as the data show it: active = GI50 up to about 1.1 µM and inactive = higher.
# Test system: NCI-H322M
# Test: NCI anticancer screen, dose series, 48 h
row,SMILES,GI50
1,COc1cc2c(cc1OCCCC(=O)Nc1cc(C(=O)Nc3cc(C(=O)Nc4cc(C(=O)NCCCN(C)C)n(C)n4)n(C)n3)n(C)n1)N=CC1CCCN1C2=O (centres undefined),inactive: 23.8 µM
2,Nc1nc2c(ncn2C2C=CC(COS(N)(=O)=O)C2)c(=O)[nH]1 (centres undefined),inactive: > 100 µM
3,CCN(CC)CCNc1ccc(C)c2sc3ccc(O)cc3c(=O)c12,inactive: 2.64 µM
4,O=C(N/N=C(COc1ccc([N+](=O)[O-])cc1)\N=C\c1ccncc1)c1ccncc1,inactive: > 100 µM
5,Oc1cccc2c1[nH]c1c(C3=C[C@@]4(O)CC/C=C\CCCCN5CC[C@@H]3[C@]3(CC6/C=C\CCCCN6[C@H]34)C5)nccc12 (some centres undefined),inactive: 3.4 µM
6,COc1ccccc1/C=C1\CCC(CCN(C)C)(C2=CCCC2)C1=O (centres undefined),inactive: 18.9 µM
7,CC(NO)/C(=N/O)c1ccco1 (centres undefined),inactive: > 10 µM
8,O=C1CSC2(CC(/C=C/c3cccc([N+](=O)[O-])c3)=NN2c2cccc(S(=O)(=O)O)c2)N1c1nc2ccccc2s1 (centres undefined),inactive: 39.1 µM
9,C=CCN1C(=O)/C(=C/c2ccccc2)NC1=S,inactive: > 100 µM
10,CN1C(=O)N(C)C2(CCN(CC(CC3OCCO3)c3ccc(F)cc3)CC2)C1=O (centres undefined),inactive: > 100 µM
11,C[C@@H]1C[C@H]2OC(=O)[C@@]3(C)CCC[C@@](C)([C@@H]23)[C@@]1(O)CCc1ccoc1,inactive: > 100 µM
12,COc1ccc2c(c1)c(=O)c1c(NCCN(C)C)ccc3nnn2c31,inactive: 1.42 µM
13,CN(C(=O)C1CCCCCC1=O)c1ccccc1Cl (centres undefined),inactive: > 100 µM
14,O=C(CCCn1ccnc1[N+](=O)[O-])NCCn1cncc1[N+](=O)[O-],inactive: > 100 µM
15,O=C(CC1C(=O)Nc2ccccc2S1(=O)=O)Nc1cc(Cl)ccc1Cl (centres undefined),inactive: 22.5 µM
16,CSc1ccc2c(c1)N(CCCN(C)C)c1ccccc1S2,inactive: 13.7 µM
17,COc1cc(/C=C/C(=O)CC(=O)/C=C/c2ccc(OC(=O)CCCCC3CCSS3)c(OC)c2)ccc1OC(=O)CCCCC1CCSS1 (centres undefined),inactive: > 100 µM
18,CC1OC(OC2C(OC(=O)[C@]34CCC(C)(C)CC3C3=CCC5[C@@]6(C)C[C@H](O)[C@H](OC7OC(COC8OC(CO)C(O)C(O)C8O)C(O)C(O)C7O)[C@@](C)(C(=O)O)C6CC[C@@]5(C)C3(C)CC4)OCC(O)C2O)C(O)C(O)C1OC1OCC(O)C(O)C1O (some centres undefined),inactive: > 100 µM
19,CC(=O)SCCC(NC(=S)Nc1ccccc1)P(=O)(Oc1ccccc1)Oc1ccccc1 (centres undefined),inactive: 35.1 µM
20,Cc1cc2c(cc1-c1cc3c(cc1C)C(C(C)C)=C(O)C(=O)/C3=C\Nc1nc(-c3ccccc3)cs1)/C(=C/Nc1nc(-c3ccccc3)cs1)C(=O)C(O)=C2C(C)C,inactive: 49 µM
21,COc1ccc(C2NC(=S)Nc3c2c(=O)oc2c3ccc3ccccc32)cc1 (centres undefined),inactive: 52.1 µM
22,CSc1nc(NC2OCC(O)C(O)C2O)c(N)c(=O)[nH]1 (centres undefined),inactive: > 100 µM
23,Cc1n[nH]c(=O)n1/N=C\CC/C=N\n1c(C)n[nH]c1=O,inactive: > 100 µM

row,SMILES,GI50
1,CC1CCCC(C(=O)/C(=C/c2cccc(Cl)c2)C(=O)C(=O)O)C1 (centres undefined),inactive: > 100 µM
2,O=C(O)c1ccc(C(O)(c2ccccc2)c2ccccc2)cc1,inactive: > 100 µM
3,COc1ccccc1NC(=S)N/N=C1\C(=O)Nc2ccccc21,inactive: > 100 µM
4,COc1cccc(/C=N/NC(=O)CN(C)C)c1O,inactive: > 100 µM
5,N#Cc1c(O)c(/C=N/c2ncccn2)c(=O)n2c1[nH]c1ccccc12,inactive: > 100 µM
6,O=C(c1c(F)c(F)c(F)c(F)c1F)n1c(=S)n(C(=O)c2c(F)c(F)c(F)c(F)c2F)c2ccccc21,inactive: > 100 µM
7,COc1c(-c2ccc3c(c2)OCO3)oc2cc(O)cc(O)c2c1=O,inactive: 36.6 µM
8,CC(=O)c1c2c(cc3c1CC1(Cc4cc5c(cc4C1)C(=O)CCC5)C3)CCCC2 (centres undefined),inactive: 30 µM
9,S=C1SC(=N\c2ccccc2)/C(=N/c2ccccc2)N1c1ccc2ccccc2c1,inactive: > 100 µM
10,O=[N+]([O-])C(=C1Nc2ccccc2N1)C(Cl)=C(Cl)Cl,inactive: > 100 µM
11,OCC1C(/C=C/c2ccoc2)ON2CCCC12 (centres undefined),inactive: > 100 µM
12,CCOC(=O)C(NC(C)=O)(Nc1ccc(F)cc1)C(F)(F)F (centres undefined),inactive: > 100 µM
13,O=C(CN1C(=O)c2ccccc2C1=O)C(O)CN1C(=O)c2ccccc2C1=O (centres undefined),inactive: > 100 µM
14,Cc1c2c(n(Cc3ccccn3)c1C)NN=C(C#N)S2(=O)=O,inactive: > 100 µM
15,O=S(=O)(O)CCSSCCS(=O)(=O)O,inactive: > 1000 µM
16,c1ccc2c3c([nH]c2c1)[C@H]1C2CCCCN2CN1CC3 (some centres undefined),inactive: 83.4 µM
17,N#C[BH2-][n+]1cn(C2CC(O)C(COP(=O)(O)OC3CC(n4cnc5c(N)ncnc54)OC3CO)O2)c2nc(N)[nH]c(=O)c21 (centres undefined),inactive: > 100 µM
18,COc1cccc(C=O)c1O,inactive: 44.4 µM
19,O=c1c2ccccc2[nH]c2ccc3c(Cl)n[nH]c3c12,inactive: 41.4 µM
20,Nc1c(-c2ccc(Cl)c(Cl)c2)c2ccc([N+](=O)[O-])cc2c(=O)n1-c1nc2ccccc2s1,active: 0.438 µM
21,O=C1/C(=C\c2ccc([N+](=O)[O-])o2)SC2NC(COc3ccc(Cl)cc3)=NN12 (centres undefined),inactive: 17.9 µM
22,CCOC(=O)NC(NC(C)CC)(C(F)(F)F)C(F)(F)F (centres undefined),inactive: > 100 µM
23,CC(C)/C(Cl)=N\OC(=O)Nc1ccc(F)cc1F,inactive: 2.77 µM

row,SMILES,GI50
1,O=C(O)Cn1ccnc1[N+](=O)[O-],inactive: > 100 µM
2,COC(=O)c1cn(CCCC(=O)O)nn1,inactive: > 100 µM
3,O=C1C2=C(C(=O)c3c(O)ccc(O)c31)[C@@H](O)[C@@H](O)[C@@H](O)C2,inactive: 3.73 µM
4,Nc1nc(Cl)cc(NCC2(CO)CCC(Cc3ccccc3)C2)n1 (centres undefined),inactive: 23.3 µM
5,c1ccc(Nc2nnc(CSc3nc(-c4ccccc4)c(-c4ccccc4)[nH]3)s2)cc1,inactive: 31.1 µM
6,CC(=O)CC(=O)Nn1c(-c2cccs2)nc2ccc(I)cc2c1=O,inactive: > 50.8 µM
7,COC(=O)C1=C(O)C(C(=O)OC)[C@]2(O)[C@H](C(=O)OC)[C@H]1C[C@@H](c1ccc([N+](=O)[O-])cc1)[C@H]2C(=O)OC (some centres undefined),inactive: 20.9 µM
8,C=CCNC1=C2C[C@@H](C)C[C@@H](OC)[C@@H](OC(=O)CCCN)[C@H](C)/C=C(\C)[C@@H](OC(N)=O)[C@H](OC)/C=C\C=C(/C)C(=O)NC(=CC1=O)C2=O,inactive: 11.5 µM
9,Cc1cccc2c(=O)c3c(O)cc(O)cc3n(C)c12,inactive: > 100 µM
10,CC1(CO)C(O)CCC2(C)C1C(O)CC1CC3CC12CCC3(O)CO (centres undefined),inactive: > 225 µM
11,N#Cc1c(N)nc2[nH]nc(N)c2c1-c1ccccc1,inactive: 19.9 µM
12,CCOC(=O)/C(=C\c1c[nH]c2ccccc12)P(=O)(OCC)OCC,inactive: 39.1 µM
13,O=C1C2=Cc3ccccc3OC2(O)Oc2ccc(O)cc21 (centres undefined),inactive: > 100 µM
14,CC(C)OP(=O)(OC(C)C)/C(=N/Nc1ccccc1[N+](=O)[O-])NCCN/C(=N\Nc1ccccc1[N+](=O)[O-])P(=O)(OC(C)C)OC(C)C,inactive: > 100 µM
15,O=C1c2ccccc2-c2ccc(N(Cc3ccc(Br)cc3)Cc3ccc(Br)cc3)cc21,inactive: > 100 µM
16,C=CC/C(C(=O)OC)=C(/C(=O)OC)N(CCC)CCC,inactive: > 100 µM
17,Oc1ccc(C[C@@H]2CN[C@H](Cc3ccc(O)c(Br)c3)CN2)cc1,inactive: > 100 µM
18,C=CC(=O)NCCC(=O)OCn1cc(F)c(=O)[nH]c1=O,inactive: 2.93 µM
19,CC1CC(N)=Nc2ccccc2N1 (centres undefined),inactive: > 100 µM
20,O=C1C2=C(SCCS2)C(=O)c2c(Sc3ccc(Cl)cc3)c(Sc3ccc(Cl)cc3)c(Sc3ccc(Cl)cc3)c(Sc3ccc(Cl)cc3)c21,inactive: > 100 µM
21,NC(=S)N1N=C2c3ccccc3CCC[C@H]2[C@@H]1c1ccccc1,inactive: 4.71 µM
22,CC(C)(C)OC(=O)NC1CCC[C@H]1O (some centres undefined),inactive: > 100 µM
23,CC(=O)N(C(C)=O)n1c(Cc2ccc(Cl)cc2)n[nH]c1=O,inactive: > 100 µM

row,SMILES,GI50
1,CC1(C)OCC(C(O)C2OC(C)(C)OC2/C=N\O)O1 (centres undefined),inactive: > 100 µM
2,Cc1ccc(SSCCCCS(=O)O)cc1,inactive: 25.9 µM
3,O=C(CC(=O)c1cccc([N+](=O)[O-])c1)C(=O)Nc1ccccc1,inactive: > 100 µM
4,Cc1cc(SCC(=O)c2ccc(Br)cc2)cc(C)[o+]1,inactive: 32.3 µM
5,COc1cccc(C2SCC(=O)N2c2ccc(-c3ccc(-n4c(-c5ccccc5)nc5ccccc5c4=O)cc3)cc2)c1OC (centres undefined),inactive: > 100 µM
6,Cc1ccc(O)c(Cc2nc3ccccc3nc2-c2cccc(Br)c2)c1,inactive: > 100 µM
7,COc1ccc(OC)c2[nH]c(Sc3c([N+](=O)[O-])ncn3C)nc12,inactive: 31.3 µM
8,COCOc1c(C(OCOC)c2cnc(Sc3ccccc3)n2C)ccc(OC)c1OC (centres undefined),inactive: > 100 µM
9,Nc1cc2c3c(cccc3c1)NC2=O,inactive: > 100 µM
10,CNc1nc(=S)[nH]c2sc3c(c12)CCCC3,inactive: > 75 µM
11,CN1CCN(C)C1c1cccc(C2N(C)CCN2C)c1,inactive: > 100 µM
12,CCOC(=O)/C=C(/OCC)[C@@H]1C(C(=O)c2ccc(Cl)cc2)[C@H]1/C(=C\C(=O)OCC)OCC (some centres undefined),inactive: > 100 µM
13,C=C(C(=O)O[C@H]1C/C(C)=C/CC/C(CO)=C/[C@H]2C(=O)OC(=C)[C@H]12)C(O)CO (some centres undefined),inactive: 18.4 µM
14,Cc1c2c(OCC3CCCCO3)nn(C)c(=O)c2c(C)n1-c1ccccc1 (centres undefined),inactive: 18.1 µM
15,COc1ccc(-n2c(=O)c3nc(S)[nH]c3n(-c3ccc(OC)cc3)c2=S)cc1,inactive: > 100 µM
16,CC(C)OC(=O)C1=C2c3ncccc3C(=O)N2[C@@H](Cl)[C@@H](Cl)[C@@H]1Cl,inactive: > 100 µM
17,N#Cc1sc2c(c1OC(=O)c1ccccc1)c(=O)n(-c1ccccc1)c(=S)n2-c1ccccc1,inactive: 27.4 µM
18,O=c1c2cc([N+](=O)[O-])ccc2n2n1CCCCC2,inactive: > 100 µM
19,CC(=O)c1cc(S(=O)(=O)c2ccc(O)c(C(C)=O)c2)ccc1O,inactive: 40.6 µM
20,Cc1cccc(-n2c(=S)[nH]c3c(sc(=O)n3-c3ccccc3C)c2=O)c1,inactive: > 100 µM
